Experimental data published in the supplement of paper PMC3334620.
Over roughly 33,000 sequences, “E-score (-0.5 to 0.5)” has its median near -0.012; the highest 2% begin near 0.27. Some of the results follow.

The sequences below were run against T1, Vhr1 (UniProt P40522) (assay: PBM E-score (8-mer binding enrichment) (E-score (-0.5 to 0.5)); higher = stronger / more preferred TF binding; most listed sequences are background and not binding sites). Conditions: protein concentration: 200 nM; construct: GST-full length.
T1 sequence: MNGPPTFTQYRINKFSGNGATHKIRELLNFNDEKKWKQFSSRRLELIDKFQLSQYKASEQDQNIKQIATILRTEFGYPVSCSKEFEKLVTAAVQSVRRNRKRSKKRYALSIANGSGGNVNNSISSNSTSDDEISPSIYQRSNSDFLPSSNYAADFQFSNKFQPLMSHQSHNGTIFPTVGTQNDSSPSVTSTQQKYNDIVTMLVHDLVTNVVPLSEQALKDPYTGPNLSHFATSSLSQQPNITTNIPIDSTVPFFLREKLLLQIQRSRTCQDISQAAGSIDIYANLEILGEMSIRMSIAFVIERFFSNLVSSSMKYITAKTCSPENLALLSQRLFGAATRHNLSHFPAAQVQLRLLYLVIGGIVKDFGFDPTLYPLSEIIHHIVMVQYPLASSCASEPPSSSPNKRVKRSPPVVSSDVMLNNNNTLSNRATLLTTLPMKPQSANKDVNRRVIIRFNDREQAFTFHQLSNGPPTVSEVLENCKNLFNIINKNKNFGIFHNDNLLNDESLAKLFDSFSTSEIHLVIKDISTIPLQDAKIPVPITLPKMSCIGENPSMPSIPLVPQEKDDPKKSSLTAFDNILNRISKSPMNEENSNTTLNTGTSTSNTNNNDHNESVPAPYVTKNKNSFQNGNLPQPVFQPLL
In short: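 Each ungapped eight-base word and its reverse complement, pooled, received an E-score from the Universal PBM Analysis Suite. Underlying scans, normalised with masliner, recorded fluorescent anti-GST bound to GST-tagged yeast transcription factors. These were applied at about 100-200 nM to universal all-10-mer Agilent arrays double-stranded by primer extension.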

Sequence | PBM E-score
ACGCGGGA | -0.0173
CGTCTACA | -0.157
AACGGATG | 0.132
GTTCGGTA | 0.106
TGGCCGAA | -0.0892
CTCTCATA | 0.00607
AGGCAGCA | -0.0663
AAGGTGAT | 0.101
CGTGCCAG | -0.244
AATATAAT | -0.0316
CCGACGAC | 0.127
ACCACAAA | 0.0812
CCTTAGAC | -0.16
CTCCATTA | -0.0602
CCTACGCA | -0.0675
GCCATCAA | -0.189
CGTCTTCC | 0.0433
TAACTTGA | -0.0113
AGCCTACT | -0.0677
ATCGTCCC | -0.00307
AACCTCGC | 0.0241
CCCTCCAG | -0.0286
GACCGAGA | -0.0366
GTTGCCGA | -0.0824
AAGCGTCG | -0.212

Sequence | PBM E-score
AGATGACT | 0.435
AATATTCG | 0.0181
AGGCCTCG | -0.161
GCAAACGC | -0.0769
GACGTGCA | -0.137
CCCTACCC | -0.0329
TAGTAGGA | 0.103
ACTAACAA | 0.212
TCCAACAA | -0.095
GACGTATC | -0.164
CAATCTCG | 0.0151
AAGGACGA | -0.186
ATGCTCCA | 0.0701
GAATTCGC | 0.106
AAAAGAGG | -0.134
CGACGCCG | 0.2
GCTTTGAC | -0.0693
ACCGGGCC | 0.00306
ACCGACAC | 0.151
AGGTATAC | 0.177
ACACCGTA | 0.0319
ACTTCGCA | -0.113
CCTCATCC | -0.182
CAGGTAGC | 0.0398
TAATTGTA | 0.164

Sequence | PBM E-score
AGAACCTC | -0.217
CTGGGGAA | -0.136
ATCATCAC | 0.197
CCGTAGCG | -0.291
TCTCAGAA | -0.137
CAATGCGC | 0.0302
TGGGAAAA | -0.242
AAGCATTA | -0.115
AATATTGA | 0.102
TCAAGTGA | -0.0308
CTACGGGC | -0.306
CAATATAG | 0.179
CTGCACTA | -0.00552
AGGCATAA | -0.201
GTGCACAA | -0.125
ATTGTCTG | 0.14
ATGGTCGG | 0.0765
AGTACCGC | 0.0571
CAGAAAGC | -0.0861
AAGTCCGT | -0.36
GGTTTAAA | -0.0589
ACGTCGAA | 0.0232
CCGACCAC | 0.22
ACTAGGAC | -0.138
AACTCTGA | 0.0902

Sequence | PBM E-score
AGATCTTG | -0.0126
AACCAGAA | 0.0466
GAAAGTGA | -0.0491
CTGAATTA | -0.00808
CTGCTAGC | -0.265
AAATTACT | -0.179
AGCGCAAT | -0.0761
ACTTTTAT | -0.304
AATAAGAT | -0.143
TAGCGTGA | 0.00946
TGGGTACA | 0.177
ATCATTTG | 0.125
GGGTAATA | 0.228
CGATACGA | -0.0911
CAGCAAAC | 0.107
CCCTACTA | -0.158
GATATGTA | 0.154
CATTGAAG | -0.159
TTAGCGAA | -0.208
CGGCTCGC | 0.0809
CAATTCCA | -0.0605
CGTTATGC | -0.199
CTTACTGA | -0.228
ATCTACAC | 0.161
CCCGATAG | -0.0297

Sequence | PBM E-score
ACTTTGTA | 0.0254
CGGCCTAC | 0.0415
GAAGTAGA | -0.0945
ACAAGCAT | 0.214
ATGCTGAC | 0.206
CGATGCTC | 0.0625
TCACTGCA | 0.208
TAAACGGA | -0.0637
AGCCACAG | -0.233
CCCCTACC | 0.0338
ACAAAAAG | -0.137
ACAATTTG | -0.138
AAACTGTA | -0.0153
GGTGGGGA | 0.378
AGTGTAAT | 0.047
CACTAAAC | 0.147
AAACGGCG | 0.157
CCGGGCGA | -0.0669
AAACCGAG | -0.0646
ATGACACG | 0.187
AGCGTCGC | -0.0775
AGGACGGA | -0.0319
GCATAATA | 0.129
AAGCAGGG | -0.188
ACTACAGC | 0.068

Sequence | PBM E-score
CTGTCCAC | -0.158
AAATATAA | 0.0163
CCACGAGG | 0.0379
ATGCCCGC | 0.156
CACATGAG | 0.065
CAACTACC | 0.0623
CGAGCGCA | -0.0455
TAGACGCA | -0.2
ACTTAAAC | -0.133
GCCAGCAC | -0.0902
TCCGGAAA | -0.206
CGCACCCG | 0.11
TCGACGAA | -0.0551
GTTAGGAA | -0.0657
AGGGCAAA | -0.153
GCGCAAAC | 0.12
GCTGCAAC | 0.0689
ATGTGTTC | 0.104
AGCGAGGA | -0.127
CATGAAAG | -0.0898
CATACGGA | 0.1
CCGGGCGC | -0.0589
CACTTTAG | 0.0417
ATTGAGAC | 0.18
GGATGTAA | 0.118

Sequence | PBM E-score
GGATTCTA | 0.115
CTCGTAGC | 0.134
ATCTGTTC | -0.0855
GCAGAGGC | -0.0359
AAATAACG | -0.00647
ATCGCCTG | 0.202
CGGGCGAG | 0.103
AGACGCAA | 0.172
GGGCAGAA | 0.172
GAGCGTGC | 0.0546
AGCAGATC | 0.0967
ATATTTGC | 0.00721
ATCGCAGG | 0.0408
TGTTGGAA | 0.0714
CATGCCCC | 0.0598
AACACGCA | -0.0949
CGTCTCCC | -0.161
AGACTTGA | -0.0302
GCATGCGC | 0.037
AGTACAAT | 0.162
CCGAAATC | -0.0397
CGTCTTAC | -0.178
